# Data: publication PMC4336329 (PLoS ONE, 2015)
# In all, about 310,000 compounds went through this assay and about 2,200 (0.71%) showed an effect of 50% or more. Effects have a minus sign here. The list shows a part of the results.
# Target: human ether-à-go-go-related gene (hERG) potassium channel (human, UniProt Q12809)
# Test: primary screen, population patch clamp on CHO cells stably expressing hERG
# Sequence of human ether-à-go-go-related gene (hERG) potassium channel (Q12809 whole entry, looked up): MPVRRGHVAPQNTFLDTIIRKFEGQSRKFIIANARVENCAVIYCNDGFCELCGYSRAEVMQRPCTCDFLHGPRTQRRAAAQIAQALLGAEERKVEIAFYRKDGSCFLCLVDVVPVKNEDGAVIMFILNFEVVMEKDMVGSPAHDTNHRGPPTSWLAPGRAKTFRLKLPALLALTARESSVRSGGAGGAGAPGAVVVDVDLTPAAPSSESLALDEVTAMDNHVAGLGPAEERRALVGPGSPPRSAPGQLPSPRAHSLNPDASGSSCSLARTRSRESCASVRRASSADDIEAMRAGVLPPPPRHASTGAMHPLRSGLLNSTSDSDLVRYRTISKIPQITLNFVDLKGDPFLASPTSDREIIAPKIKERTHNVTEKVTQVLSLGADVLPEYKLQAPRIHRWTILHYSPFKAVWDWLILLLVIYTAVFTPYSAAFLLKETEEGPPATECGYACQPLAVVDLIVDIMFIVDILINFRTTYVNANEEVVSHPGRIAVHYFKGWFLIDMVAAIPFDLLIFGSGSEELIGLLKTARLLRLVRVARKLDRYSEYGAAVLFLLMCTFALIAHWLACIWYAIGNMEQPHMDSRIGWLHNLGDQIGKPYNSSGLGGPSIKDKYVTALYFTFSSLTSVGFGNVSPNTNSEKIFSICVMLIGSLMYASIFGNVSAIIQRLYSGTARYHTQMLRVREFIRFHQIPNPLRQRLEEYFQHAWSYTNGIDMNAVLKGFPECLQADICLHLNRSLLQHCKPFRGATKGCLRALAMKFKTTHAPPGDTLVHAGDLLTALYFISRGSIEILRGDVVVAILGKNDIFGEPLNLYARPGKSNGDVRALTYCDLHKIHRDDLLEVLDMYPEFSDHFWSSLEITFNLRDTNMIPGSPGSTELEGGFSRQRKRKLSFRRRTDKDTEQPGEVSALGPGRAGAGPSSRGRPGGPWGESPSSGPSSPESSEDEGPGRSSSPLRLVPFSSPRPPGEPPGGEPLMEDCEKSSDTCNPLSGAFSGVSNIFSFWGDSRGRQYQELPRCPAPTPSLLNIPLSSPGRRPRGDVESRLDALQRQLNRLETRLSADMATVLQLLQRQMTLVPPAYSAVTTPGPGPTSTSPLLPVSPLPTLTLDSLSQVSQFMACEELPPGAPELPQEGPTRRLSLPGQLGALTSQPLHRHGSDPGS
row,SMILES,"hERG current change (%, negative = inhibition) at 1uM"
1,COc1ccc(C(C(=O)NC(C)(C)C)N(Cc2ccco2)C(=O)CCC(=O)Nc2ccccn2)cc1 (centres unmarked),11.4%
2,Cc1ccc(S(=O)(=O)NCC(=O)N(CC(=O)NCc2ccco2)Cc2ccc(F)cc2)cc1,3.49%
3,C/C(=N\NC(=O)c1ccccc1)c1ccc(N2CCOCC2)cc1,13.9%
4,Cc1onc(-c2c(Cl)cccc2Cl)c1/C(N)=N/OC(=O)C1CC1,11.1%
5,CCCCCN(C(=O)CCC(=O)OC(C)C(=O)Nc1cccc(C#N)c1)c1c(N)n(CCCC)c(=O)[nH]c1=O (centres unmarked),25.1%
6,Cc1nn(C)c(C)c1CN(Cc1nc(-c2ccc(F)cc2F)oc1C)C1CC1,11%
7,CCC1Oc2ccccc2N(CC(=O)NCCCN2CCCCC2C)C1=O (centres unmarked),15.2%
8,CCOC(=O)[C@H]1O[C@@H]1C(=O)N[C@@H](CC(C)C)C(=O)NCCC(C)C,22.6%
9,CCC(=O)Nc1ccc(NC(=O)CSc2nnnn2-c2ccc(OC)cc2)cc1,14.5%
10,CC(=O)c1ccc(OCCCC(=O)NCCc2ccc(C(F)(F)F)cc2)cc1,13.4%
11,COc1ccc(OC)c(NC(=O)CCNC(=O)Cn2cnc3ccccc3c2=O)c1,7.44%
12,COC(=O)CSc1nnc(-c2ccccn2)n1N,10.9%
13,Cc1nc(NC(=O)CC(C)C)sc1-c1csc(Nc2ccc(Cl)cc2)n1,12.5%
14,CN1C(=O)/C(=C/c2cn(CC(=O)N3CCCCC3)c3ccccc23)NC1=S,13.6%
15,Cc1ccnc(SCC(=O)Nc2sc3c(c2C#N)CCCC3)n1,1.08%
16,CCOc1ccc(S(=O)(=O)N(CC)CC)cc1NC(=O)c1ccc(N2CCCC2=O)cc1,29.7%
17,CC(C)CN(CC(C)C)CC(O)COc1ccc([N+](=O)[O-])cc1.Cl (centres unmarked),-52.1%
18,CCC[C@H](N[C@@H](CCC)[C@H](O)c1ccccc1)[C@H](O)c1ccccc1,9.11%
19,CCCc1nnc(NC(=O)c2cc3ccccc3oc2=O)s1,8.79%
20,Cn1c(=O)cc(SCC(=O)NCCC2=CCCCC2)c2ccc(Cl)cc21,8.49%
21,CC(C)/C=N\NC(=O)CCCCC(=O)N/N=C/C(C)C,13%
22,COc1cc(C(C(=O)NC2CCCC2)N(C(=O)c2snc(C(N)=O)c2N)C2CCCC2)cc(OC)c1OC (centres unmarked),14.4%
23,Cc1ccc(-c2cc(Cc3ccc(F)cc3)c(=O)[nH]n2)cc1,11.5%
